From PMC4245953, “Hug1 is an intrinsically disordered protein that inhibits ribonucleotide reductase activity by directly binding Rnr2 subunit” (Nucleic Acids Research, 2014)
Substitutions are numbered along the chain they refer to. No constants are given. Whether binding was seen depends on the method and setting. For some of these results: In cells and extracts the contact can be indirect. Some results given as binding are weak or reduced against the parent protein; the word gives no strength. Tags and fused reporters may be left off the sequences shown.

Experiments:
[1] = target: T1, Rnr2 fused to Gal4 activating domain (S. cerevisiae) (UniProt P09938); assay: two-hybrid; data not shown; Rnr2 and Rnr4 as two-hybrid fusions against themselves and each other
T1 sequence: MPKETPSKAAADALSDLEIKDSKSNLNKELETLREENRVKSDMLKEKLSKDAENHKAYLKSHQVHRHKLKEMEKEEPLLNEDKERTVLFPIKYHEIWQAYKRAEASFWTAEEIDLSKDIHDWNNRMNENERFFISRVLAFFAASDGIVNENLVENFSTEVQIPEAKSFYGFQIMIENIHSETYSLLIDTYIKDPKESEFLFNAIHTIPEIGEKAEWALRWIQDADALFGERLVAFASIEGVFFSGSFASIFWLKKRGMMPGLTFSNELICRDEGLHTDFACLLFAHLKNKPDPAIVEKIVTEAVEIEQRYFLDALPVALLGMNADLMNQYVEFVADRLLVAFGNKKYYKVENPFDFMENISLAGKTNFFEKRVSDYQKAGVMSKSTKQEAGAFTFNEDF

[2] = target: T2, Hug1 G37A Y38A (M2) fused to Gal4 DNA-binding domain (S. cerevisiae) (UniProt Q6Q5K6); assay: two-hybrid; Hug1 (wild type or mutant) fused to Gal4-DBD (bait, pGBT9), Rnr2, Rnr4 or Dna2 fused to Gal4-AD (prey, pACT2); diploids; HIS3 reporter on 3AT and LacZ reporter with X-gal
T2 sequence: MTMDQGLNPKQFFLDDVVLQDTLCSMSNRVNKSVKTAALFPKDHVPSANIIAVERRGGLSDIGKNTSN

[3] = target: T3, Hug1 I50E I51E (M5), two-hybrid fusion (S. cerevisiae) (UniProt Q6Q5K6); assay: as above
T3 sequence: T2 sequence with A37G, A38Y, I50E, I51E

[4] = target: T4, Hug1 N31A K32A S33A (M1) fused to Gal4 DNA-binding domain (S. cerevisiae) (UniProt Q6Q5K6); assay: as above
T4 sequence: T2 sequence with N31A, K32A, S33A, A37G, A38Y

[5] = target: T5, Hug1 R29A (M3) fused to Gal4 DNA-binding domain (S. cerevisiae) (UniProt Q6Q5K6); assay: as above
T5 sequence: T2 sequence with R29A, A37G, A38Y

[6] = target: T6, Hug1 Y38E L39E (M4), two-hybrid fusion (S. cerevisiae) (UniProt Q6Q5K6); assay: as above
T6 sequence: T2 sequence with A37G, A38E, L39E

[7] = target: T7, Hug1 fused to Gal4 DNA-binding domain (S. cerevisiae) (UniProt Q6Q5K6); assay: as above
T7 sequence: T2 sequence with A37G, A38Y

[8] = target: T8, (His)6-GST-TEV site-Hug1 (S. cerevisiae) (UniProt Q6Q5K6); assay: pull-down; His6-GST-Hug1 from E. coli soluble extract on Glutathione-agarose; His6-Rnr2 or His6-Rnr2-Rnr4 added; elution with GSH; western blot with anti-His
T8 sequence: T2 sequence with A37G, A38Y

[9] = target: T9, (His)6-Rnr2 (S. cerevisiae) (UniProt P09938); assay: co-purification; (His)6-Rnr2 and Rnr4 produced in E. coli, held on Ni-NTA agarose, then anion exchange (Tris 50 mM pH 8, NaCl gradient)
T9 sequence: T1 sequence

[10] = target: Rnr4 fused to Gal4 activating domain (S. cerevisiae) (UniProt P49723); assay: two-hybrid; data not shown; Rnr2 and Rnr4 as two-hybrid fusions against themselves and each other

B1: Rnr2 fused to Gal4 activating domain (protein, UniProt P09938 1-399)
chain: T1 sequence
binding [1]: binds | binding [2]: no binding | binding [3]: no binding | binding [4]: binds | binding [5]: no binding | binding [6]: no binding | binding [7]: binds

B2: (His)6-Rnr2-Rnr4 complex (complex, UniProt P09938 1-399; P49723 1-345)
chain 1: T1 sequence
chain 2: MEAHNQFLKTFQKERHDMKEAEKDEILLMENSRRFVMFPIKYHEIWAAYKKVEASFWTAEEIELAKDTEDFQKLTDDQKTYIGNLLALSISSDNLVNKYLIENFSAQLQNPEGKSFYGFQIMMENIYSEVYSMMVDAFFKDPKNIPLFKEIANLPEVKHKAAFIERWISNDDSLYAERLVAFAAKEGIFQAGNYASMFWLTDKKIMPGLAMANRNICRDRGAYTDFSCLLFAHLRTKPNPKIIEKIITEAVEIEKEYYSNSLPVEKFGMDLKSIHTYIEFVADGLLQGFGNEKYYNAVNPFEFMEDVATAGKTTFFEKKVSDYQKASDMSKSATPSKEINFDDDF
binding [8]: binds

B3: Rnr4 (recombinant, co-expressed with (His)6-Rnr2) (protein, UniProt P49723 1-345)
chain: B2 chain 2
binding [9]: binds

B4: Rnr4 fused to Gal4 activating domain (protein, UniProt P49723 1-345)
chain: B2 chain 2
binding [1]: binds | binding [10]: binds | binding [7]: no binding

B5: (His)6-Rnr2 (protein, UniProt P09938 1-399)
chain: T1 sequence
binding [8]: binds
